The list shows a part of the results. At the low end of the ranking, values are background and their order means little. The protein was read in a cell extract, so binding may be indirect.
biological target: T1, HNF4alpha2 (COS-7 nuclear extract) (UniProt P41235); experiment: protein-binding microarray; details: COS-7 nuclear extract on double-stranded Agilent 4x180k PBM; binding buffer, salt, pH and temperature not given; high values mean tight binding; double strand, one strand shown; sequences stand for … in …GCCTAGGGAGATTAGAGTATCGGTCGA
T1 sequence: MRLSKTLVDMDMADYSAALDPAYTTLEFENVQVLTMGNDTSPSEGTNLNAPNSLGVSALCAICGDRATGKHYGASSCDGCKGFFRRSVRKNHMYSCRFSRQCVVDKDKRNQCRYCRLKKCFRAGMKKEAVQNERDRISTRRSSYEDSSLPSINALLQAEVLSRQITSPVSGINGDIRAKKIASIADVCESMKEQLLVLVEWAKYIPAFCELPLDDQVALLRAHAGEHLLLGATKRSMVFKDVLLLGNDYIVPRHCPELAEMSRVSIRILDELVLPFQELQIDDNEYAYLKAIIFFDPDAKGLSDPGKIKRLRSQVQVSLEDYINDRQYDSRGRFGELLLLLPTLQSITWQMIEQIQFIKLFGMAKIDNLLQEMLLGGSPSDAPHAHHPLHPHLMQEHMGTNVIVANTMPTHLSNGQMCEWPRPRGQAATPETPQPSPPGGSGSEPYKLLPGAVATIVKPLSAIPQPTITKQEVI

Sequence | binding signal (log2 normalized intensity)
AAGCGGACAAACCAGTCCCATCTGTGCTCA | -1.16
ACTATTTTCAAAGGTCAACATACAGAGGCT | 1.84
CTCCAAACAAATTGAGAAAGATTAAGAGGC | -1.2
AATGAATGTCACTTTCTGACTGGCCTGGGA | 1.49
CCGAGGCTGACAGCAGAGAGTTTTCCTTGG | -0.272
CTCCTGACCTTTGGACTTGATAGAGTTTAA | 7.57
TGATAACATGAGGTAGAGGGACACTGATAA | -1.07
TGCTTCAGTCTCCCAAGTAGCTCATTTATT | 0.972
AACACCTGGGTCTGACCTCTTTCAAGCCTG | 0.86
GTGCTTTCTGTCCTCTCAAAGTCCACCCGG | 3.58
TGCGTTTCAAAGCCAGGACTTTCAGGAATG | -1.14
AAAGCCATCAGCACTGGTTCAAAGTGTAGC | 0.876
TCCACAGAGTTCATAATTTTGGACTTTGTG | 6.15
AAGTCCCCTTTCCTCATATTTTGCATACCA | 1.79
CTCTGCACCCTTCCCTGAGTTTCCATTAAC | 1.28
TTTCACAAATCATTACTATCTGCTGGGGGC | -0.0971
AGCCTTAGGTATGCCCCATGGTAAGAACTA | 0.745
CTTGTATCGCCTGAATGACCACATGCCCTC | 2.41
GGGAACTCCCTGACCCCTAGCACTTCCCGA | 3.14
TGAATCCTCTTTGAGTCTGGTGTTCTCTTG | 1.73
ATTGCCAATATCTGCCATCTACTAAGTGCT | -1.17
GAGTAAAGTATCCAGTTAATCCCAGAAGAA | -0.339
TGCGCAAACATAAAGGCAAAGGTCAAGGAC | 3.92
GTTTCCCTGTTTGCTTCTGCCCCCTGGAGG | 2.99
GAAGGCCCCAATTGCCAAGGGGGTGGTGAA | -0.785

Sequence | binding signal (log2 normalized intensity)
TTGCTGCTCTCGCCTGGAAGTCCATTTCCC | 1.67
GCTAAACAATTAAAGAACTCTTCATTATGG | -0.854
TCATTACCTCCCTGGGCATGTCTGCTCCCT | 1.52
TATGGCGAAAAAGGAAATATCTTCCCATAA | -1.11
GGGTTCTTGGATCCTCAGGGTTCATAGATG | 2.08
TTCCCTCTCTCCTGGTTTGGGGCCTAAATG | 0.626
AAGTTTGCAAACAGTAAAGAACAAACTTCC | -0.882
GGTACCCTGGATACGGAAGGTGCTCAGAAA | -0.956
TGAATGCCTGGGCATGGCTGTGTTCCAGTA | 0.581
CAACGGAGGTGGGAAAGACTTAGGATCTAG | -1.3
TATGCCCAGAGCTTTGTTCTGTTCCAGTTA | 0.376
GTCCCGTTATGGCACCAAGAAACCTTTCCC | -1.04
CTACAGCCCACAATTGCATGTTCAACAGAC | -0.797
GATGCATGCACTTCATTGTGCACCCACTTG | -0.091
GAACCCAAGCAATCTGGCTGCAGAGTCCAA | 2.04
GGTCAAGCTAAGCACAACTGATTCTATTTA | -1.12
CTTTTGTTTTTCTTCAAGGAGGTGAACTTT | 5.1
CCCCTGCACAGTCAAAAATTTGTGTGTAAC | 1.89
CTCTCCCTCCTCTCTGAGCAGTCAAACTGG | 1.96
ACTGCCCTCTGCCTTTCAGGCAGGAGACGA | -1.2
TATATGTTTTGCAACAAAGGCACTTTGATA | 1.47
TGACTTCCAATTTACTTTTTAAACACCTAG | -1.18
GTGTGGCATCTTGGGGTCAAGGCCTTTAAG | 1.64
AATTCTTTGCTGTGGTAGGCTGTCCTGTGC | 1.56
GCTTAGGACTGCAGGGGGCCAAGGGATACC | -1.1

Sequence | binding signal (log2 normalized intensity)
GTTCTGCCATCTCGCAGAAAGTGGCCGGAC | 1.62
ACGTGGCAATCATTCTGTCTGCCTTCAGGC | -0.947
CCCTTTGCACATGCCCCTCCCAGGGACACA | 3.12
GCTCCAGGTAGTCCCTGCTCCACGCAAACA | -1.1
AGCCTTCCTGTTCAACTATTCCTCGACCTT | 2.11
ATCCAGTAGAGGGCATAGCAGATAAGCATT | -0.984
GTTGCCTATGCCCTTTGAAATTCTGGACTT | 3.31
GAACGCTCACAGAAAGAAGAGACAGCTGGG | -1.23
CAGGGTGGACTTTAAACATTCCCACCTAAG | 3.18
CACGTAAATAAGGATAAAGTAAGGTGAAGC | -0.82
TGCTCCAGGCAAAGGGCATAACATGAGGCA | -1.15
GAGCACAGAAGGAGGGCGGGGAGTCTCCTG | -1.14
GCTTGAAAACACAACAAAAGAACTCAAGAG | -1.05
CTGTGCTTTGGCCAAATAATAGCATTGTAG | 0.358
GCTTCTCTTGGACCTCAATGTGCTCATCCA | 0.722
AACAAACTTTGCTGTGTCCCACAGGGAAAG | -0.81
AACATCTTTGGTATGGACTGATATTCAAAC | 0.994
CACACCACACTCTCCTCCTGGCCTCCACTC | -1.26
GGAGTTGGAACGGGGGCAAGGGTCAGAGTA | 4.26
GGAAGGTGCCAAGCATTCTAATCATTGAGG | -1.08
CCCACTCTTAGCAGAGATTCCTGCTGAGTT | -1.15
ATCCTTATCTTGTAGAAAAGTGCATGGATT | 0.836
TTTGCTTAGTCTTATCTGAGGTGCCCTTAC | 2.67
